The source of these data is article PMC4395284.

Chains of the proteins cited; added tags and fusions are not shown. Lines headed by an entry give the natural chain unless they say otherwise; changes in a name come on top. A line that says so, or that is headed by a name, gives the form on record, which may keep a tag or linker. Residues count along the entry.
UniProt O54803: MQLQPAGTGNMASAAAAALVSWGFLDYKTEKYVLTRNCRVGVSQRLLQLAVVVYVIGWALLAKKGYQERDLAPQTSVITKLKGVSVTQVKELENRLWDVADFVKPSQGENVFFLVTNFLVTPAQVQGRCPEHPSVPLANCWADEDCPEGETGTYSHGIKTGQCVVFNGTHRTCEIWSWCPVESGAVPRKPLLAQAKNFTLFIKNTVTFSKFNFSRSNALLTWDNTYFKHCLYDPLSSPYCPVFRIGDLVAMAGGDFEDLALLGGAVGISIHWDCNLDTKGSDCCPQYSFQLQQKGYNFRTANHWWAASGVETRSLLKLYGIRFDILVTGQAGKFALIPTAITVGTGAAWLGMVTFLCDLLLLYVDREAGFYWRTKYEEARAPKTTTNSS
UniProt O15547: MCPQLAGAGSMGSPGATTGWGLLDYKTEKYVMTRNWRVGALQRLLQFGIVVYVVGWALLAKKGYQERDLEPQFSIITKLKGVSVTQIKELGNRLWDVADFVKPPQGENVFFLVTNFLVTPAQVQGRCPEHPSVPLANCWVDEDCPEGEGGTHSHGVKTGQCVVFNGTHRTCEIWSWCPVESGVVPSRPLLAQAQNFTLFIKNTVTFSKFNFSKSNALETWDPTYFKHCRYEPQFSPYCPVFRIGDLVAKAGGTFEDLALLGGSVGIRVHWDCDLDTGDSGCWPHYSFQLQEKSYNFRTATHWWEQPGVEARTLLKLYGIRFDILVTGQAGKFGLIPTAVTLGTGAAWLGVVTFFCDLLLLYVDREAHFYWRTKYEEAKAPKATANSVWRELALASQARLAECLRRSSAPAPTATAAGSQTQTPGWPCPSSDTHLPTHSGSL
EXT-P2X6-myc (extracellular domain of P2X6 fused with c-myc): residues 61-333 of O15547
TM-P2X6-myc (transmembrane TM2 and C terminal region of P2X6 fused with c-myc): residues 334-441 of O15547

Results are given in words; binding and its absence hold for the method and conditions named. Binding seen in cells or lysates may run through a third protein. Some results given as binding are weak or reduced against the parent protein; the word gives no strength.

For experiment [1], the target named is P2X6 subunit (native, mouse hippocampus) (mouse (endogenous in hippocampus)) (UniProt O54803). The experiment can be described thus: co-IP; nuclear fraction of 8 month-old mouse hippocampus; anti-P2X6, anti-spectrin α2 or anti-SF3A1 antibody or IgG control on MagSi-ProteinG beads, room temperature 1 h, washed three times with PBS; immunoblot.
For experiment [2], the target named is spectrin α2 (mouse (endogenous in hippocampus)) (UniProt P16546). The experiment is described as above.
For experiment [3], the target named is T1, splicing factor 3 subunit A1 (SF3A1), mouse hippocampus (mouse (endogenous in hippocampus)) (UniProt Q8K4Z5).
T1 sequence: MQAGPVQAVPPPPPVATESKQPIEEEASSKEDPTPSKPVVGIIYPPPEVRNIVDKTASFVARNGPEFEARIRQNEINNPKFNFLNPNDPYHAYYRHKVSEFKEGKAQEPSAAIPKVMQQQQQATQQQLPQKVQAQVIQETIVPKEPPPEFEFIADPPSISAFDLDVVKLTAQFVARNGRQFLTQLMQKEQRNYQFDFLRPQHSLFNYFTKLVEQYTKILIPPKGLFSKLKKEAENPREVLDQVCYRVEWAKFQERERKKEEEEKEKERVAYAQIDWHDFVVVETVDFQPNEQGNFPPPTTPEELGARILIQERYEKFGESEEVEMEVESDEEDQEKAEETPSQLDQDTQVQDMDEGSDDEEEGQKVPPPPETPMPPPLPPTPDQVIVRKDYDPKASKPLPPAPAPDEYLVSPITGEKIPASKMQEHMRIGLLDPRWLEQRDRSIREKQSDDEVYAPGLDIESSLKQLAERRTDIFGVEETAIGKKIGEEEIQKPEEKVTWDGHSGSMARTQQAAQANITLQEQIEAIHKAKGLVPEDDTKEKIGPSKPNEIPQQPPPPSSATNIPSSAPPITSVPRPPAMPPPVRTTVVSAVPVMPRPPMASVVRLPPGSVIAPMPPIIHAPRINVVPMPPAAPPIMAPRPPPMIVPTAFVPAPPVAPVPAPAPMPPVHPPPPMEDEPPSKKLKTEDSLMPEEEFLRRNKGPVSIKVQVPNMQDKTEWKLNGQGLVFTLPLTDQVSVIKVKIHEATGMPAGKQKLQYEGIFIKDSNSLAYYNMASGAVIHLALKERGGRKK
The description is as above.

Experiment [4] addresses EXT-P2X6-myc (extracellular domain of P2X6 fused with c-myc) (human) (UniProt O15547). Put plainly: co-IP; nuclear fraction of N2a cells overexpressing myc-tagged P2X6 constructs, immunoprecipitated with anti-myc antibody or IgG, immunoblot with anti-SF3A1.
Experiment [5] concerns the target TM-P2X6-myc (transmembrane TM2 and C terminal region of P2X6 fused with c-myc) (human) (UniProt O15547). Described as above.
The target in experiment [6] is full length P2X6-myc (human) (UniProt O15547). Described as above.

Turning to “spectrin α2 (from UniProt P16546 1-2472)”, the binding entry in experiment [1] was “binds”.
“P2X6 subunit (native, mouse hippocampus) (from UniProt O54803 1-389)”: the binding entry in experiment [2] and in experiment [3] was “binds” in each case.

B1: splicing factor 3 subunit A1 (SF3A1), mouse hippocampus (protein, UniProt Q8K4Z5 1-791)
chain: MQAGPVQAVPPPPPVATESKQPIEEEASSKEDPTPSKPVVGIIYPPPEVRNIVDKTASFVARNGPEFEARIRQNEINNPKFNFLNPNDPYHAYYRHKVSEFKEGKAQEPSAAIPKVMQQQQQATQQQLPQKVQAQVIQETIVPKEPPPEFEFIADPPSISAFDLDVVKLTAQFVARNGRQFLTQLMQKEQRNYQFDFLRPQHSLFNYFTKLVEQYTKILIPPKGLFSKLKKEAENPREVLDQVCYRVEWAKFQERERKKEEEEKEKERVAYAQIDWHDFVVVETVDFQPNEQGNFPPPTTPEELGARILIQERYEKFGESEEVEMEVESDEEDQEKAEETPSQLDQDTQVQDMDEGSDDEEEGQKVPPPPETPMPPPLPPTPDQVIVRKDYDPKASKPLPPAPAPDEYLVSPITGEKIPASKMQEHMRIGLLDPRWLEQRDRSIREKQSDDEVYAPGLDIESSLKQLAERRTDIFGVEETAIGKKIGEEEIQKPEEKVTWDGHSGSMARTQQAAQANITLQEQIEAIHKAKGLVPEDDTKEKIGPSKPNEIPQQPPPPSSATNIPSSAPPITSVPRPPAMPPPVRTTVVSAVPVMPRPPMASVVRLPPGSVIAPMPPIIHAPRINVVPMPPAAPPIMAPRPPPMIVPTAFVPAPPVAPVPAPAPMPPVHPPPPMEDEPPSKKLKTEDSLMPEEEFLRRNKGPVSIKVQVPNMQDKTEWKLNGQGLVFTLPLTDQVSVIKVKIHEATGMPAGKQKLQYEGIFIKDSNSLAYYNMASGAVIHLALKERGGRKK
As to B1, in experiment [1], the binding entry is on record as “binds”.

B2: SF3A1 (endogenous in N2a cells) (protein, UniProt Q8K4Z5 1-791)
chain: MQAGPVQAVPPPPPVATESKQPIEEEASSKEDPTPSKPVVGIIYPPPEVRNIVDKTASFVARNGPEFEARIRQNEINNPKFNFLNPNDPYHAYYRHKVSEFKEGKAQEPSAAIPKVMQQQQQATQQQLPQKVQAQVIQETIVPKEPPPEFEFIADPPSISAFDLDVVKLTAQFVARNGRQFLTQLMQKEQRNYQFDFLRPQHSLFNYFTKLVEQYTKILIPPKGLFSKLKKEAENPREVLDQVCYRVEWAKFQERERKKEEEEKEKERVAYAQIDWHDFVVVETVDFQPNEQGNFPPPTTPEELGARILIQERYEKFGESEEVEMEVESDEEDQEKAEETPSQLDQDTQVQDMDEGSDDEEEGQKVPPPPETPMPPPLPPTPDQVIVRKDYDPKASKPLPPAPAPDEYLVSPITGEKIPASKMQEHMRIGLLDPRWLEQRDRSIREKQSDDEVYAPGLDIESSLKQLAERRTDIFGVEETAIGKKIGEEEIQKPEEKVTWDGHSGSMARTQQAAQANITLQEQIEAIHKAKGLVPEDDTKEKIGPSKPNEIPQQPPPPSSATNIPSSAPPITSVPRPPAMPPPVRTTVVSAVPVMPRPPMASVVRLPPGSVIAPMPPIIHAPRINVVPMPPAAPPIMAPRPPPMIVPTAFVPAPPVAPVPAPAPMPPVHPPPPMEDEPPSKKLKTEDSLMPEEEFLRRNKGPVSIKVQVPNMQDKTEWKLNGQGLVFTLPLTDQVSVIKVKIHEATGMPAGKQKLQYEGIFIKDSNSLAYYNMASGAVIHLALKERGGRKK
In the case of B2, the values for the binding result in experiment [4], in experiment [5] and in experiment [6] were “binds”, “no binding” and “binds”, respectively.
